Assay results from patent EP1383793B1 (priority 2000, dated 2001).
Where two headings read alike, the source gives them in different places. For part of these data: At least one peptide structure holds a part that was inferred or is arguable (an end, a ring closure or a residue). For part of these data: At least one compound was matched to its structure with a doubt left. Residues, ends and D or L forms follow the SMILES beside them. *: point of attachment. Biotin = O=C1N[C@H]2[C@H](CS[C@H]2CCCCC(=O)*)N1

Columns and labels:
adipocytes = experiment: 3H-glucose uptake into adipocytes (fat cell assay, FFC); format: cell-based, Mouse; conditions: Subjective ranking; basal and sub maximal insulin; includes series A
[1] = target: human IGF-1 receptor (HIGF-1R) (Homo sapiens, UniProt P08069); experiment: 125I-IGF-1 competition binding assay on solubilised purified receptor; conditions: for Ratio: Kd HIGF1R / Kd HIR
Chain of human IGF-1 receptor (HIGF-1R) (P08069 31-736 limits assumed): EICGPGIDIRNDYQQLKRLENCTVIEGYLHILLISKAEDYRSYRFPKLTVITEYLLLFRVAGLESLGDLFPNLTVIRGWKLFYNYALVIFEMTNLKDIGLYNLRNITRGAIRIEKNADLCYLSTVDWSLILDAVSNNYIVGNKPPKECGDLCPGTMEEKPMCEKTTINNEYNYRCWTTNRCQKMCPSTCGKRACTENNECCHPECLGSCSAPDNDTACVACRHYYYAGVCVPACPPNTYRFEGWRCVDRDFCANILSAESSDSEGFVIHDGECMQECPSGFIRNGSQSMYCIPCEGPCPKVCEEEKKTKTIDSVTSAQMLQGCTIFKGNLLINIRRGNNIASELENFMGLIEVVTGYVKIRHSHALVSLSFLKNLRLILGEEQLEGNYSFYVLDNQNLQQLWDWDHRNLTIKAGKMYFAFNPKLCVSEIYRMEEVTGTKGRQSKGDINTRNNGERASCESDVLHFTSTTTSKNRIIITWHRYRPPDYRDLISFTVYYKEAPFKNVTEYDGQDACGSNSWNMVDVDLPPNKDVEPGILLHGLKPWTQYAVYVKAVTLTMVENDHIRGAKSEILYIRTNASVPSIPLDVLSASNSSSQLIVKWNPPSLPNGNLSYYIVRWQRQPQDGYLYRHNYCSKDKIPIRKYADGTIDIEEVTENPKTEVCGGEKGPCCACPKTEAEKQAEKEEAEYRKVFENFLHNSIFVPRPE
Chain of human IGF-1 receptor (HIGF-1R) (P08069 741-1367 limits assumed): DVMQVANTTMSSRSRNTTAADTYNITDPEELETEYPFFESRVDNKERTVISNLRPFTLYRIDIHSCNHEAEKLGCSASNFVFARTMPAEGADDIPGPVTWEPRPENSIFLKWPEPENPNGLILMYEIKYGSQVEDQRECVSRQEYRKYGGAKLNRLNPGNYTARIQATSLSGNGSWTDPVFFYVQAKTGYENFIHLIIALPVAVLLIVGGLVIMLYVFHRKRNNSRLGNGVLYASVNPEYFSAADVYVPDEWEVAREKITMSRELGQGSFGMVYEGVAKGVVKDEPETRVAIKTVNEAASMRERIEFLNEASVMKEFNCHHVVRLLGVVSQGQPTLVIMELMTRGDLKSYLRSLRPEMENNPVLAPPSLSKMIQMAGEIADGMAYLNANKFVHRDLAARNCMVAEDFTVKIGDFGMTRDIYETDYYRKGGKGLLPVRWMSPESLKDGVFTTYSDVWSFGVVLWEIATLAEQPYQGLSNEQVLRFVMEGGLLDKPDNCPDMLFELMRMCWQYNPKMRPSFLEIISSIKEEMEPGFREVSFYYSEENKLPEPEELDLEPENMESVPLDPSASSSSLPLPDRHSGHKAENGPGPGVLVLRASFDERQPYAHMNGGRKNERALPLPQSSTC

[2] = target: T1, purified insulin receptor (Homo sapiens, UniProt P06213); experiment: Holoenzyme phosphorylation assay (IR autophosphorylation, Western blot); format: biochemical
T1 construct: host or cells: 'Wheat Germ Agglutinin Expression System' (so in the source)
T1 sequence (P06213 28-758 limits assumed): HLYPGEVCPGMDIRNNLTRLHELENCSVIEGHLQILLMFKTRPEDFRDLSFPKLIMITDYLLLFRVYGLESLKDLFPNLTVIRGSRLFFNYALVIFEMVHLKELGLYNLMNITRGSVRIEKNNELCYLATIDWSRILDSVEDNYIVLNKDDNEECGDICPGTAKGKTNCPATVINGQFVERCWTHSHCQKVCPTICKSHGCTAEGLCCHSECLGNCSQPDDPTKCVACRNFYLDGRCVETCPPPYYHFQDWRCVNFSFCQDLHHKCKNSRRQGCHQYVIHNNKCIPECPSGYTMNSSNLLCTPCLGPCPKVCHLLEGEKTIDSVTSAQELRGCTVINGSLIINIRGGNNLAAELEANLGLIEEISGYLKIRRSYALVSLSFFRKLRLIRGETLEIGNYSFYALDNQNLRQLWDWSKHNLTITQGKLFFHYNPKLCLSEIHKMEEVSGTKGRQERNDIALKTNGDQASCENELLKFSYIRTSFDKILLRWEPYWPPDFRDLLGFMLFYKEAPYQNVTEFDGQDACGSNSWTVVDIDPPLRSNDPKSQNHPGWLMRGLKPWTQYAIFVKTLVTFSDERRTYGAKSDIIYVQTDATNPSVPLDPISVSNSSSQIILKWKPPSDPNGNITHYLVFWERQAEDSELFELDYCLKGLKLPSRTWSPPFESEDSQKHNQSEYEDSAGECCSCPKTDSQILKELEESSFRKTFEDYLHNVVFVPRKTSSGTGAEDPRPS
T1 sequence (P06213 763-1382 limits assumed): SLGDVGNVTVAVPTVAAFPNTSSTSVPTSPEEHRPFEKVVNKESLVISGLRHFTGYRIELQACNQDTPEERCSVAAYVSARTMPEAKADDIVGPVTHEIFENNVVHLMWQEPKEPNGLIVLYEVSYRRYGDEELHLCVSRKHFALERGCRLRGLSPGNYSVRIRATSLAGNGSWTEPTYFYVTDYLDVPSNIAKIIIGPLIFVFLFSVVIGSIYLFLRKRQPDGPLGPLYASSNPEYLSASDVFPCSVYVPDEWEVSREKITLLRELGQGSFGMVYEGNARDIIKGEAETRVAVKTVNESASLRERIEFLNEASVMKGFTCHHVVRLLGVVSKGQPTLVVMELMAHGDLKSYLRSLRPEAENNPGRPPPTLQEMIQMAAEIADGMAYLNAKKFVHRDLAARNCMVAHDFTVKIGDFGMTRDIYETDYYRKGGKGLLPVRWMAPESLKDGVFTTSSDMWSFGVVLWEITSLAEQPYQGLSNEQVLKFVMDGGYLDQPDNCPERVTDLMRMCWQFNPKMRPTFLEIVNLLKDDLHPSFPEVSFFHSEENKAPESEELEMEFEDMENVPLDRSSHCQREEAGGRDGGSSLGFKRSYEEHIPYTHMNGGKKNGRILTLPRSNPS
Procedure: Alternatively, IR autophosphorylation was determined using a holoenzyme phosphorylation assay. […] The reaction was stopped by adding 50 µl of gel loading buffer containing β-mercaptoethanol (Bio-Rad Laboratories, Inc., Hercules, CA). The samples were run on 4-12% SDS-polyacrylamide gels. Western Blot analysis was performed by transferring the proteins onto nitrocellulose membrane. The membrane was blocked in PBS containing 3% milk overnight. The membrane was incubated with anti-phosphotyrosine 4G10 HRP labeled antibody (Upstate Biotechnology) for 2 h. Protein bands were visualized using SuperSignal West Dura Extended Duration Substrate Chemiluminescence Detection System (Pierce Chemical Co.).

Insulin receptor = target: T2, Insulin receptor (Homo sapiens, UniProt P06213); experiment: BIAcore competition: IR pre-incubated with test substance, injected over immobilised insulin; format: binding; conditions: peptide about 40 µM, IR 450 nM; IR alone 128 RU
T2 construct: composed of the extracellular domains of both the α and β chains of the natural receptor; made in house; background b13 names human embryonic kidney 293 cells for the Bass et al. construct
T2 sequence (P06213 28-758 limits assumed): as the sequence (P06213 28-758 limits assumed) above
T2 sequence (P06213 763-956 limits assumed): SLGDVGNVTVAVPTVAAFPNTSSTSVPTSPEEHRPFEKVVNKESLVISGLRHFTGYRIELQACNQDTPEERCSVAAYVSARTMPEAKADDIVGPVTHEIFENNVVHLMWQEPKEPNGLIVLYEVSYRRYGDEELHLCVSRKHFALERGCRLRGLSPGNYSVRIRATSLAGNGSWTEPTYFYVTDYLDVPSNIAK
Procedure: Flowcell-1 was used for background binding to correct for any non-specific binding. […] The surface was regenerated with 25 mM NaOH. […] Thus, the system was validated for competition studies. […] The amino acid sequences referred to in the tables are identified in Figures 47 and 48, except the 447 and 2A9 sequences, which are shown below. TABLE 9: BIAcore Results-Fusion Proteins Compete for Binding to IR

[3] = Precipitate in diluted peptide stock prior to adding to the fat cell assay; solubility under assay conditions; format: physicochemical
IGF-1R [4] = target: T3, IGF-1R (Homo sapiens, UniProt P08069); experiment: Phage ELISA, competition of phage binding by soluble synthetic peptides, IGF-1R-coated wells; conditions: IGF Receptor, read-out: Kd (Hill plot)
T3 construct: Soluble IGF-1R was obtained from R&D Systems; purchased R&D Systems 391-GR/CF
T3 sequence (P08069 31-736 limits assumed): as the sequence (P08069 31-736 limits assumed) above
T3 sequence (P08069 741-935 limits assumed): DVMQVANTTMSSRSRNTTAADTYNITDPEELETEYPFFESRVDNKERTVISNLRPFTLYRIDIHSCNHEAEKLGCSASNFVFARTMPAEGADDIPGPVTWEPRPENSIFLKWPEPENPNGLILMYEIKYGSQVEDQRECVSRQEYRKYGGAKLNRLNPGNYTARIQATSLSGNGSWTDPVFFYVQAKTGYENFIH

[5] = target: T4, human insulin receptor (HIR) (Homo sapiens, UniProt P06213); experiment: 125I-insulin competition binding assay on solubilised purified receptor; conditions: read-out: Kd (µM) HIR
T4 construct: made in house
T4 sequence (P06213 28-758 limits assumed): as the sequence (P06213 28-758 limits assumed) above
T4 sequence (P06213 763-1382 limits assumed): as the sequence (P06213 763-1382 limits assumed) above

IGF-1R [6] = target: T3, IGF-1R; experiment: IGF-1R peptide assay, time-resolved FRET, competition with biotinylated 20E2 (IC50); format: binding
IR = target: T5, IR (Homo sapiens, UniProt P06213); experiment: Phage ELISA, competition of phage binding by soluble synthetic peptides, IR-coated wells; conditions: Insulin Receptor, read-out: Kd (Hill plot)
T5 construct: composed of the extracellular domains of both the α and β chains of the natural receptor; made in house; background b13 names human embryonic kidney 293 cells for the Bass et al. construct
T5 sequence (P06213 28-758 limits assumed): as the sequence (P06213 28-758 limits assumed) above
T5 sequence (P06213 763-956 limits assumed): as the sequence (P06213 763-956 limits assumed) above

SMILES | Resp. (adipocytes) | Ratio [1] | Autophosph. Blot [2] | Comments (precipitation) [3] | further results
CSCC[C@H](NC(=O)[C@H](Cc1ccccc1)NC(=O)[C@H](Cc1c[nH]c2ccccc12)NC(=O)[C@H](CC(=O)O)NC(=O)[C@H](Cc1ccc(O)cc1)NC(=O)[C@H](Cc1ccccc1)NC(=O)[C@H](CC(N)=O)NC(=O)[C@H](CCCCN)NC(=O)[C@H](CC(=O)O)NC(=O)[C@H](C)N)C(=O)N[C@@H](C)C(=O)N[C@@H](C)C(=O)N[C@@H](CCCCN)C(=O)N[C@@H](CCCCNC(=O)CCCC[C@@H]1SC[C@@H]2NC(=O)N[C@@H]21)C(N)=O [Clone D115] (H-ADKNFYDWFMAAKK(Biotin)-NH2) | 0 | >2.5 | 0 | – | –
CC(C)C[C@H](NC(=O)CNC(=O)[C@H](CC(N)=O)NC(=O)[C@H](Cc1ccc(O)cc1)NC(=O)[C@H](Cc1ccccc1)NC(=O)[C@H](C)NC(=O)[C@H](CCCNC(=N)N)NC(=O)[C@H](CC(=O)O)NC(=O)[C@@H](N)CCCCN)C(=O)N[C@@H](CCCNC(=N)N)C(=O)N[C@@H](CC(=O)O)C(=O)N[C@@H](CC(C)C)C(=O)N[C@H](C(=O)NCC(=O)N[C@@H](C)C(=O)N[C@H](C(=O)N[C@@H](Cc1ccc(O)cc1)C(=O)NCC(=O)N[C@@H](C)C(=O)N[C@@H](Cc1c[nH]c2ccccc12)C(=O)N[C@@H](CC(=O)O)C(=O)N[C@@H](CCCCN)C(=O)N[C@@H](CCCCNC(=O)CCCC[C@@H]1SC[C@@H]2NC(=O)N[C@@H]21)C(N)=O)C(C)C)C(C)C [Clone 20C11] (H-KDRAFYNGLRDLVGAVYGAWDKK(Biotin)-NH2) | +1 | 2.9 | – | – | Result (RUs) (Insulin receptor): 49 RUs
CC(C)C[C@H](NC(=O)[C@H](C)NC(=O)[C@H](Cc1c[nH]c2ccccc12)NC(=O)[C@H](CO)NC(=O)[C@H](Cc1c[nH]cn1)NC(=O)CNC(=O)[C@@H](N)CCCCN)C(=O)N[C@H](C(=O)N[C@@H](CCCNC(=N)N)C(=O)N[C@@H](Cc1c[nH]cn1)C(=O)N[C@H](C(=O)N[C@@H](CC(=O)O)C(=O)N[C@@H](CCCNC(=N)N)C(=O)N[C@@H](CC(C)C)C(=O)N[C@@H](Cc1ccccc1)C(=O)N[C@@H](Cc1ccc(O)cc1)C(=O)N[C@@H](CCC(=O)O)C(=O)N[C@@H](Cc1c[nH]c2ccccc12)C(=O)N[C@@H](Cc1ccccc1)C(=O)N[C@@H](CC(=O)O)C(=O)N[C@@H](CC(C)C)C(=O)N[C@@H](CCCCN)C(=O)N[C@@H](CCCCNC(=O)CCCC[C@@H]1SC[C@@H]2NC(=O)N[C@@H]21)C(N)=O)C(C)C)C(C)C [Clone D104] (H-KGHSWALVRHVDRLFYEWFDLKK(Biotin)-NH2) | 0 | – | – | Precipitates | –
CC(C)[C@H](NC(=O)[C@H](Cc1ccccc1)NC(=O)[C@H](Cc1c[nH]c2ccccc12)NC(=O)[C@H](CC(=O)O)NC(=O)[C@H](Cc1ccc(O)cc1)NC(=O)[C@H](Cc1ccccc1)NC(=O)[C@H](CC(N)=O)NC(=O)[C@H](CCCCN)NC(=O)[C@H](C)NC(=O)[C@@H](N)CO)C(=O)N[C@@H](CCCCN)C(=O)N[C@@H](CCCCNC(=O)CCCC[C@@H]1SC[C@@H]2NC(=O)N[C@@H]21)C(N)=O [Clone D114] (H-SAKNFYDWFVKK(Biotin)-NH2) | 0 | >2.5 | 0 | – | –
CC(C)C[C@H](NC(=O)[C@H](CCC(N)=O)NC(=O)[C@H](CCC(N)=O)NC(=O)[C@H](CO)NC(=O)[C@H](CCCNC(=N)N)NC(=O)[C@H](CS)NC(=O)[C@H](CC(N)=O)NC(=O)[C@H](Cc1c[nH]c2ccccc12)NC(=O)[C@H](Cc1ccccc1)NC(=O)[C@@H](NC(=O)[C@@H](N)CCCCN)C(C)C)C(=O)N[C@@H](CC(=O)O)C(=O)N[C@@H](Cc1ccccc1)C(=O)N[C@@H](Cc1ccc(O)cc1)C(=O)N[C@@H](CCC(=O)O)C(=O)N[C@@H](Cc1c[nH]c2ccccc12)C(=O)N[C@@H](Cc1ccccc1)C(=O)N[C@@H](CCC(=O)O)C(=O)N[C@@H](CCC(N)=O)C(=O)N[C@@H](C)C(=O)N[C@@H](C)C(=O)N[C@@H](CCCCN)C(=O)N[C@@H](CCCCNC(=O)CCCC[C@@H]1SC[C@@H]2NC(=O)N[C@@H]21)C(N)=O [Clone D106] (H-KVFWNCRSQQLDFYEWFEQAAKK(Biotin)-NH2) | 0 | 6.4 | – | Precipitates | –
CC(C)[C@H](NC(=O)[C@H](Cc1ccccc1)NC(=O)[C@H](Cc1c[nH]c2ccccc12)NC(=O)[C@H](CC(=O)O)NC(=O)[C@H](Cc1ccc(O)cc1)NC(=O)[C@H](Cc1ccccc1)NC(=O)[C@H](CC(N)=O)NC(=O)[C@H](C)NC(=O)[C@H](C)NC(=O)[C@H](CC(=O)O)NC(=O)CNC(=O)[C@H](CS)NC(=O)[C@@H]1CCCN1C(=O)[C@H](CCCNC(=N)N)NC(=O)[C@H](C)NC(=O)[C@H](Cc1c[nH]c2ccccc12)NC(=O)[C@H](CS)NC(=O)[C@H](CC(=O)O)NC(=O)[C@H](CCCCN)NC(=O)[C@H](Cc1ccc(O)cc1)NC(=O)[C@@H](N)CC(=O)O)C(=O)N[C@@H](CCC(N)=O)C(=O)N[C@@H](CCC(N)=O)C(=O)N[C@@H](C)C(=O)N[C@@H](CO)C(=O)N[C@@H](CCCCN)C(=O)N[C@@H](CCCCNC(=O)CCCC[C@@H]1SC[C@@H]2NC(=O)N[C@@H]21)C(N)=O [Clone C1] | – | – | – | – | Kd (IGF-1R [4]; 20D3 Phage): 19 nM; Kd (IGF-1R [4]; H2 Phage): 40 nM; Kd [5]: 0.49 µM; IC50 (IGF-1R [6]): ~10 nM; Kd ([1]; read-out: Kd (µM) HIGF1R): 0.05 µM; Kd (IR; 20D3 Phage): 324 nM; Kd (IR; H2 Phage): 132 nM
